# Data from PMC4336329 (PLoS ONE, 2015).
# The campaign covered roughly 310,000 compounds. About 2,200 (0.71%) showed an effect of 50% or more. Effects have a minus sign here. Some of the results follow.
# Molecular target: human ether-à-go-go-related gene (hERG) potassium channel (human, UniProt Q12809)
# Assay: primary screen, population patch clamp on CHO cells stably expressing hERG
# Sequence of human ether-à-go-go-related gene (hERG) potassium channel (Q12809 whole entry, looked up): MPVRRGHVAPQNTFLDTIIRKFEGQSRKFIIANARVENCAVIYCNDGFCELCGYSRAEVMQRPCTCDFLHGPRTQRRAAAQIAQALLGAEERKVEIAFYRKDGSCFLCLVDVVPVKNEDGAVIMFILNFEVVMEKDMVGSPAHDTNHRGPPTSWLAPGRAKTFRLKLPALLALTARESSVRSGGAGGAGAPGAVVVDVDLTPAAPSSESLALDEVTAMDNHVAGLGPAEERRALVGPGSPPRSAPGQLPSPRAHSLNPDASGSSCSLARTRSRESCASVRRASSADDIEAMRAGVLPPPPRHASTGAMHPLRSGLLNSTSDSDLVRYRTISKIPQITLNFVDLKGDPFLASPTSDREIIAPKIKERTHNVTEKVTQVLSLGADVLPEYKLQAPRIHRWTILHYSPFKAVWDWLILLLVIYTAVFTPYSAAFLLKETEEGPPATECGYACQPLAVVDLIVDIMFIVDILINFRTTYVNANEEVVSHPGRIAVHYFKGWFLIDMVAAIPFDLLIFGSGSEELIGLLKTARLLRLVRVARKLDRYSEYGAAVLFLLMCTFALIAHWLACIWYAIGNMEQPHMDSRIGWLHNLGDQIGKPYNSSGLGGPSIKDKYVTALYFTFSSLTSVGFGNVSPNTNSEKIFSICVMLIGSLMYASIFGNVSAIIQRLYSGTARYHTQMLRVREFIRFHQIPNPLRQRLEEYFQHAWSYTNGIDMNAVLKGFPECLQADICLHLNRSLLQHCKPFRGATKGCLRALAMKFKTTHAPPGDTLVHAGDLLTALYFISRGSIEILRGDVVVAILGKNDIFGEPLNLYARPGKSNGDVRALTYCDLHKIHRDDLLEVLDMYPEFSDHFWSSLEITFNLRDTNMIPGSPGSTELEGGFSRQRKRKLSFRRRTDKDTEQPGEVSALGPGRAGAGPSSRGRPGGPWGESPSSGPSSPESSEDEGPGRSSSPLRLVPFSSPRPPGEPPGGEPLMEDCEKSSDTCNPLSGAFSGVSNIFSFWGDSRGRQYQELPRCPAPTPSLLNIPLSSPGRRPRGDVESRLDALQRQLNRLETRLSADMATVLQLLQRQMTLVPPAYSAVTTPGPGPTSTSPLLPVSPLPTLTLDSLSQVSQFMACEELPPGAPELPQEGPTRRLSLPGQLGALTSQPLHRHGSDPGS
row,Compound,"hERG current change (%, negative = inhibition) at 1uM [%]"
1,CCN(c1cccc(C)c1)S(=O)(=O)c1ccc(-c2cc(C)no2)s1,11.1
2,O=C(O)C1CCC(=O)N(C2CCCCC2)C1c1ccccc1Cl (stereo not shown),12
3,NC(=O)CNC(=O)C1CCN(S(=O)(=O)c2ccc(-n3cnnn3)cc2)CC1,-17.1
4,CCCOc1ccc(N2C(=O)CC(NCCc3ccc(S(N)(=O)=O)cc3)C2=O)cc1 (stereo not shown),7.21
5,Nc1c(C(=O)c2ccc(Br)s2)oc2ccccc12,-3.47
6,Cc1cc(C)c(OCCCCN(C)Cc2ccccc2)c(C)c1.O=C(O)C(=O)O,14.7
7,CCOC(=O)c1cccc(NC(=O)c2c(O)[nH]c(=O)[nH]c2=O)c1,4.26
8,COc1ccccc1CNS(=O)(=O)c1cc2c3c(c1)C(C)C(=O)N3CCC2 (stereo not shown),18.1
9,CCCCCOC(=O)CSc1nnc(-c2ccccc2)c(=O)[nH]1,4.84
10,Cc1ccc(N(CC(=O)NC2CCCC2)C(=O)CCC(=O)Nc2nc(C)cs2)cc1,7.5
11,Cc1ccc(NC(=O)CCCc2c[nH]c3ccccc23)nc1,8.81
12,CC1Cc2nc(SCC(=O)Nc3nc4ccccc4s3)n(C)c(=O)c2S1 (stereo not shown),-0.256
13,CC1Cc2ccccc2N1C(=O)CCNS(=O)(=O)c1cccc2nsnc12 (stereo not shown),11
14,Cc1c(C=O)c2ccccc2n1CC(=O)NC(C)c1ccccc1 (stereo not shown),15.2
15,CCN(CC)C(=O)CSc1nnc(-c2cc(-c3ccc(Cl)cc3)nc3ccccc23)o1,6.61
16,COC(=O)c1ccc(S(=O)(=O)NCc2ccc(S(N)(=O)=O)cc2)o1,14.4
17,COc1cc2c(C#N)c(N3CCc4ccccc4C3)nc(N)c2c(N)n1,11.1
18,CCOC(=O)c1ccc(OCCOc2cccc(C)c2)cc1,12.1
19,CCn1c(-c2cc(Br)cc(OC)c2O)nc2cc(S(=O)(=O)N(C)C)ccc21,11.3
20,CN(C)c1ccc(NC(=O)CN2C(=O)CN=C(c3ccccc3)c3cc(Cl)ccc32)cc1,5.96
21,Cc1ccc(C)c(NC(=O)CSc2nnc3n2CCCCC3)c1,10.3
22,CCCCn1nnc(NC(=O)c2ccc(-c3ccccc3)cc2)n1,13.7

row,Compound,"hERG current change (%, negative = inhibition) at 1uM [%]"
1,COc1ccc(CCn2c(C)nc3c(c(=O)c4ccccc4n3C)c2=O)cc1,1.18
2,C[C@@H]1CN(C(=O)c2nc3ccc(Cl)cn3c2CN2CCc3sccc3C2)C[C@H](C)O1,7.7
3,COc1ccc(COc2ccc(S(=O)(=O)N3CCCC3)cc2C(N)=O)cc1F,17.7
4,COc1ccnc(Oc2ccc(F)cc2)c1C(=O)N/C=N/OCc1ccc(F)cc1,10.2
5,Cc1noc(C)c1COC(=O)c1cc(=O)[nH]c2ccccc12,-10.1
6,COc1ccc(/C=N/NC(=O)c2ccoc2C)cc1COc1ccc(Cl)cc1,10.7
7,O=C(c1c(Cl)cccc1Cl)N1CCCCCC1,6.36
8,C=CCSc1cc(C)nc2c(-c3ccc(Cl)cc3)c(C)nn12,4.01
9,COC(=O)c1cc(C(=O)c2ccccc2)n2c(=O)/c(=C\N(C)C)sc12,8.9
10,CCOC(=O)c1c(C)[nH]c(C(=O)CSc2nnnn2-c2ccccc2)c1C,18.6
11,Cc1ccc(C(=O)COc2nc(C)nc3ccccc23)cc1,25.4
12,CC(C)[C@H](NC(=O)C1CCN(S(=O)(=O)c2ccccc2)CC1)C(=O)NCc1ccncc1,8.5
13,O=C(NC(Cc1ccccc1)C(=O)O)/C(=C\c1ccccc1)NC(=O)c1ccco1 (stereo not shown),1.26
14,N#CCCCCn1c(-c2cncs2)nc2ccccc21,-10.9
15,O=c1ccc2cc(O)c(O)cc2o1,15.7
16,CC(C)(C)c1ccc(OCCC(=O)OCC(=O)NC2CCS(=O)(=O)C2)cc1 (stereo not shown),-6.48
17,COc1ccc(N2CCN(S(=O)(=O)c3cc(-c4cc(C)no4)ccc3C(C)C)CC2)cc1,5.37
18,CCN(CC)CCn1c2c(c(SCC(=O)Nc3nc(C)cs3)nc1=O)CCC2,-7.88
19,O=C(COC(=O)C(Cc1ccccc1)NC(=O)c1ccccc1)c1ccccc1 (stereo not shown),8.08
20,CCC(SC1=N/C(=C/c2ccccc2)C(=O)N1c1ccccc1)C(=O)Nc1cc(C)on1 (stereo not shown),12.7
21,Cc1cc(-c2ccccc2)c2c(n1)sc1c(O)cc(=O)[nH]c12,11.2
